Experimental data taken from PubChem BioAssay AID686979 (National Center for Advancing Translational Sciences (NCATS), 2013).
“And” between values parts separate entries of the source, which are not always exact repeats. Equal values may be shown once. Hit rate of the full screen: of about 420,000 compounds, about 50,000 (12%) were called active. The inconclusive results got no clear call from the source; some entries with a clear call stand among them for comparison. The call rests on the fitted dose curve; in most records, active means well fitted inhibition curve with a large enough effect; inconclusive means small, poorly fitted or top-dose-only effect; inactive means flat fitted curve, though single readings scatter. Where the call is inconclusive, the potency comes from a doubtful curve fit.

Assay: qHTS for Inhibitors of human tyrosyl-DNA phosphodiesterase 1 (TDP1): qHTS in cells in presence of CPT; further: nearly all actives have a fitted effect of over 55% in size
Conditions: chicken DT40 Tdp1-/-;hTDP1 cells + 20 nM CPT, ATP luminescence, 48 h; activity change, negative = growth inhibition: at 46.2 µM (top of the series) unless noted
Outline: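 Cell growth measured by CellTiter-Glo luminescence after a minimum 48 h, 37 C compound exposure with 20 nM CPT in Tdp1-knockout DT40 cells stably expressing hTDP1, seeded 400/well; qHTS titration format.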
On the % scale 0 is the no-effect control and ±100 the full control effect; potency means the concentration at half of the fitted maximal effect; tags describe the fitted curve by direction and shape.

Row | Structure (SMILES) | activity change, negative = growth inhibition | Potency
1 | CCc1ccc2occ(CC(=O)NCc3ccccc3)c2c1 | inconclusive: -30.7% [inhibitor] | 
2 | CCOC(=O)N1CCN(C(=O)CSc2nnc(-c3cccc(Cl)c3)o2)CC1 |  | inconclusive: 20.6 µM [inhibitor, partial curve]
3 | O=C(NC1CCN(C(=O)Nc2ccccc2Cl)CC1)c1ccco1 | inactive: -5.86% | 
4 | COc1ccc(S(=O)(=O)N2CCCC(C(=O)N3CCCCCC3)C2)cc1 (configuration not stated) |  | inconclusive: 9.2 µM [inhibitor, partial curve, poor fit]
5 | Cc1ccc(CN2CC(C(=O)NCCC3=CCCCC3)CC2=O)cc1 (configuration not stated) | inactive: -5.78% | 
6 | COc1ccc(NC(=O)Cc2ccc(NC(=O)N3CCCCc4ccccc43)cc2)c(OC)c1 |  | inconclusive: 23.1 µM [inhibitor, single point]
7 | CCCCCCn1c(N2CCN(c3ccccc3)CC2)nc2c1c(=O)n(C)c(=O)n2C |  | inconclusive: 29.1 µM [inhibitor, single point]
8 | O=C(c1ccccc1)c1ccccc1C(=O)N1CCN(Cc2ccccc2F)CC1 |  | inconclusive: 25.9 µM [inhibitor, single point]
9 | S=C1NC2=C(CCC/C2=C\c2ccc(Cl)cc2)C(c2ccc(Cl)cc2)N1 (configuration not stated) |  | inconclusive: 23.1 µM [inhibitor, single point]
10 | CC(C)c1ccc(NC(=O)c2cc(S(=O)(=O)NCCC3=CCCCC3)ccc2F)cc1 |  | active: 18.4 µM
11 | CN1CCN(c2nc(-c3ccccc3)nc(-c3ccc(F)cc3)c2C#N)CC1 |  | inconclusive: 29.1 µM [inhibitor, single point]
12 | C=CCNC(=O)c1c(N)n(-c2ccc3c(c2)OCO3)c2nc3ccccc3nc12 |  | active: 11.6 µM
13 | Cn1cc(-c2cc3n(n2)CCC(=O)N3CCCC(=O)NCc2ccccc2)c2ccccc21 |  | inconclusive: 18.4 µM [inhibitor, single point]
14 | COc1ccc(CNC(=O)CN(C)S(=O)(=O)c2ccc3[nH]c4c(c3c2)CCCC4)cc1 |  | inconclusive: 16.4 µM [inhibitor, single point]
15 | COc1ccc(S(=O)(=O)CCC(=O)N2CCN(c3ccccc3F)CC2)cc1 | inactive: -7.19% | 
16 | COc1ccc(Nc2cc(C)c3cc([N+](=O)[O-])ccc3n2)cc1 |  | inconclusive: 29.1 µM [inhibitor, single point]
17 | CCOC(=O)C1CCC(CN(Cc2ccc(OC)cc2)S(=O)(=O)c2ccc(F)c(C(=O)Nc3cc(Cl)ccc3OC)c2)CC1 (configuration not stated) | inactive: -11.1% | 
18 | COc1cccc(CN(C)CC(=O)Nc2sc3c(c2C#N)CCC3)c1 | inactive: 0.869% | 
19 | COc1cc(/C=C2\N=C(C)OC2=O)cc(OC)c1OC |  | inconclusive: 25.9 µM [inhibitor, single point]
20 | CC(C)c1cccc(-c2csc(C(C)(O)c3ccccc3)n2)c1 (configuration not stated) |  | inconclusive: 29.1 µM [inhibitor, single point]
21 | Cc1ccccc1OCC(=O)N/N=C/c1cn(Cc2ccccc2)c2ccccc12 | inactive: -29.2% | 
22 | CCOC(=O)CN(C(=O)CSc1nnc(Cc2ccccc2)n1-c1ccc(C)cc1)c1ccccc1 |  | inconclusive: 23.1 µM [inhibitor, single point]
23 | Cc1ccc(NC(=O)C2CCN(S(=O)(=O)c3c(C)noc3C)CC2)cc1C |  | inactive and inconclusive: 29.1 µM [inhibitor, single point]
24 | COc1ccc(C(=O)CSc2nnc(-c3ccoc3C)n2CC2CCCO2)cc1 (configuration not stated) |  | inconclusive: 23.1 µM [inhibitor, single point]

Row | Structure (SMILES) | activity change, negative = growth inhibition | Potency
25 | Cn1c2ccccc2c2nnc(SCCN3CCOCC3)nc21 |  | inconclusive: 29.1 µM [inhibitor, single point]
26 | Cc1ccc(CN2C(=O)N(c3ccc(C)c(Cl)c3)S(=O)(=O)c3ccccc32)cc1 |  | inconclusive: 29.1 µM [inhibitor, single point]
27 | COc1cccc(NC(=O)CN2C(=O)C3(SCC(=O)N3c3cc(C)cc(C)c3)c3ccccc32)c1 (configuration not stated) |  | active: 18.4 µM
28 | C[C@H](NC(=O)N1CCC(Cc2ccccc2)CC1)C(=O)O | inactive: 2.99% | 
29 | CCN(CC)c1ncnc2c1ncn2[C@H]1CN(Cc2cccs2)C[C@@H](CO)O1 |  | inconclusive: 29.1 µM [inhibitor, single point]
30 | CCOC(=O)/C=c1\s/c(=C\c2ccc3cc(OC)ccc3c2)c(=O)n1CC(=O)NCC1CCCO1 (configuration not stated) |  | active: 9.2 µM
31 | Cc1ccc(N(CC(=O)NC(C)(C)C)C(=O)CCC(=O)Nc2ccccn2)cc1 | inactive: -22.6% | 
32 | CC1(C(=O)NS(=O)(=O)c2ccc(Cl)cc2)CCN1C(=O)Cc1ccccc1Cl (configuration not stated) | inactive: -14.5% | 
33 | O=C(NC1CCCC1)c1ccc(CS(=O)(=O)Cc2ccccc2Cl)o1 |  | inconclusive: 8.2 µM [inhibitor, partial curve, poor fit]
34 | O=C(NCc1cccnc1)c1cc(C2CCCCN2S(=O)(=O)c2cccc3cccnc23)on1 (configuration not stated) |  | active: 11.6 µM
35 | CN(C)c1ccc2nc3ccc(=O)cc-3sc2c1 |  | active: 1.64 µM
36 | N#Cc1ccc(NC(=O)COCc2cc(-c3ccc(F)cc3)on2)cc1 |  | inconclusive: 16.4 µM [inhibitor, single point]
37 | c1ccc(Cc2ccc(OCCn3cncn3)cc2)cc1 |  | inconclusive: 35.5 µM [inhibitor, single point]
38 | CCc1ccc(CNC(=O)c2ccc(CS(=O)(=O)Cc3ccccc3C)o2)cc1 |  | active: 20.6 µM
39 | Cc1cc(C(=O)CSc2nnc(-c3cccs3)n2Cc2ccccc2)c(C)n1C |  | inconclusive: 35.5 µM [inhibitor, single point]
40 | O=C(Nc1ccccc1N1CCN(C(=O)c2ccc(Cl)cc2)CC1)c1ccc([N+](=O)[O-])o1 |  | active: 20.6 µM
41 | O=C(Nc1ccc(Cl)cc1C(F)(F)F)c1cc(S(=O)(=O)NCc2ccccc2)ccc1F |  | inconclusive: 16.4 µM [inhibitor, single point]
42 | COC(=O)c1c(-c2cccs2)csc1NC(=O)COc1ccc(C(C)C)cc1 |  | inconclusive: 29.1 µM [inhibitor, single point]
43 | CCC(=O)N1CCCC(C)(C(=O)Nc2ccc(OC(F)F)cc2)C1 (configuration not stated) | inactive: -3.28% | 
44 | O=C(CCCOc1ccc(Cl)cc1Cl)Nc1ncccn1 | inactive: 1.29% | 
45 | O=C(c1ccccc1)c1ccc(N2CCN(C(=O)c3ccc(F)cc3F)CC2)c(F)c1 |  | active: 23.1 µM
46 | O=C(NC1(O)C(=O)c2ccccc2C1=O)c1ccccc1 |  | active: 25.9 µM
47 | O=C(CCc1nnc(Cc2cccc(C(F)(F)F)c2)o1)NCCc1ccccc1F |  | inconclusive: 29.1 µM [inhibitor, single point]
48 | COc1ccc2cc(C(c3nnnn3CCc3ccccc3)N3CCCC(C)C3)c(=O)[nH]c2c1 (configuration not stated) |  | inconclusive: 29.1 µM [inhibitor, single point]

Row | Structure (SMILES) | activity change, negative = growth inhibition | Potency
49 | COc1ccc(N2CCN(C(=O)c3ccc(N(C)S(=O)(=O)c4ccc(C)cc4)cc3)CC2)cc1 |  | active: 16.4 µM
50 | CN1C(=O)c2cccc3c(S(=O)(=O)N(C)C)ccc1c23 | inactive: -0.692% | 
51 | CCOC(=O)c1cnc2c(Cl)cccc2c1NCCCN1CCOCC1 |  | inconclusive: 32.6 µM [inhibitor, single point]
52 | COc1ccc(CNC(=O)CCS(=O)(=O)c2ccc3c(c2)CC(C)N3C(=O)C2CC2)cc1 (configuration not stated) |  | active: 3.26 µM and active: 14.6 µM
53 | N#Cc1ccc(/C=N/NC(=O)c2ccccc2F)cc1 | inactive: 1.76% | 
54 | CS(=O)(=O)Nc1cccc(-c2nc(N3CCNCC3)c3ccccc3n2)c1 |  | inconclusive: 29.1 µM [inhibitor, single point]
55 | O=C1C(=O)N(CC2CCCO2)C(c2ccco2)/C1=C(/O)c1ccc(F)cc1 (configuration not stated) | inactive: 5.39% | 
56 | CCOC(=O)CSc1nc2ccccc2n2c(C)nnc12 |  | inactive
57 | O=C(CSc1nccn1C1CCCC1)Nc1ccccc1 | inactive: -0.952% | 
58 | COc1ccccc1/C=C/C1C(C(=O)OCC(C)C)=C(C)N=C2SCCC(=O)N21 (configuration not stated) | inactive: 1.92% | 
59 | COc1ccc2cc3cc(C(=O)NC4CC4)sc3nc2c1 |  | active: 23.1 µM
60 | O=c1cc(CN(Cc2ccccc2)Cc2ccccc2)c2ccccc2o1 |  | inconclusive: 18.4 µM [inhibitor, single point]
61 | COCCCn1c(SCC(=O)N2CCCC(C)C2)nnc1-c1ccco1 (configuration not stated) | inactive: -4.82% | 
62 | CCOc1ccc(-n2ccnc2SCC(=O)Nc2ccc(OC)cc2OC)cc1 | inactive: 6.16% | 
63 | Cc1ccc(/C=N/n2c(C3CCCCC3)n[nH]c2=S)o1 | inactive: -10.6% | 
64 | CCOC(=O)C1=C(C)N(C)C(=O)NC1c1cccc2ccccc12 (configuration not stated) |  | inconclusive: 29.1 µM [inhibitor, single point]
65 | O=C(COn1nnc2ccc(C(F)(F)F)cc21)Nc1nnc(-c2ccccc2)o1 |  | inconclusive: 29.1 µM [inhibitor, single point]
66 | CC1=C(C(=O)OC2CCCC2)C(c2cccc(Cl)c2Cl)CC(=O)N1 (configuration not stated) |  | inconclusive: 23.1 µM [inhibitor, single point]
67 | COc1ccc(C)c2sc(N(CCCN(C)C)C(=O)c3ccc(S(=O)(=O)N(C)C)cc3)nc12 |  | inconclusive: 16.4 µM [inhibitor, single point]
68 | COC(=O)c1ccccc1NC(=O)C12CC3CC(C1)CC(n1cnc(Cl)n1)(C3)C2 |  | active: 20.6 µM
69 | CC(CCc1ccc(O)cc1)NC(c1ccccc1)c1ccc(Cl)cc1 (configuration not stated) |  | inconclusive: 4.61 µM [inhibitor, single point]
70 | O=C(CSc1nnc(-c2cccs2)n1CC1CCCO1)N1CCCC1 (configuration not stated) | inactive: 28.1% | 
71 | Cc1ccc(Cl)cc1N1CCN(C(=O)c2cn(C)c3ccc(S(=O)(=O)N4CCCC4)cc3c2=O)CC1 |  | inconclusive: 20.6 µM [inhibitor, single point]
72 | CCC1Oc2ccccc2N(CC(=O)NCc2ccc(C)cc2)C1=O (configuration not stated) |  | inconclusive: 16.4 µM [inhibitor, single point]
